Test results as given in the supplement of paper PMC9927326.
MIC of clinical C. albicans isolates, CLSI broth microdilution (ranges and time not stated); higher = less susceptible. Call: susceptible or wild type [S] / resistant or non-wild type [R] by CLSI breakpoints or epidemiological cut-offs; intermediate and dose-dependent carry no call here (the paper groups them with resistant). '<=' and '>=' mark each drug's lowest and highest value, inferred; the source prints them plain. Isolates are numbered anew.

Assays:
Assay in all cases: CLSI broth microdilution.
posaconazole = compound: CC[C@@H]([C@H](C)O)n1ncn(-c2ccc(N3CCN(c4ccc(OC[C@@H]5CO[C@@](Cn6cncn6)(c6ccc(F)cc6F)C5)cc4)CC3)cc2)c1=O [posaconazole]
anidulafungin = compound: CCCCCOc1ccc(-c2ccc(-c3ccc(C(=O)N[C@H]4C[C@@H](O)[C@@H](O)NC(=O)[C@@H]5[C@@H](O)[C@@H](C)CN5C(=O)[C@H]([C@@H](C)O)NC(=O)[C@H]([C@H](O)[C@@H](O)c5ccc(O)cc5)NC(=O)[C@@H]5C[C@@H](O)CN5C(=O)[C@H]([C@@H](C)O)NC4=O)cc3)cc2)cc1 [anidulafungin]
voriconazole = compound: C[C@@H](c1ncncc1F)[C@](O)(Cn1cncn1)c1ccc(F)cc1F [voriconazole]
micafungin = compound: CCCCCOc1ccc(-c2cc(-c3ccc(C(=O)N[C@H]4C[C@@H](O)[C@@H](O)NC(=O)[C@@H]5[C@@H](O)[C@@H](C)CN5C(=O)[C@H]([C@H](O)CC(N)=O)NC(=O)[C@H]([C@H](O)[C@@H](O)c5ccc(O)c(OS(=O)(=O)O)c5)NC(=O)[C@@H]5C[C@@H](O)CN5C(=O)[C@H]([C@@H](C)O)NC4=O)cc3)no2)cc1 [micafungin]
caspofungin = compound: CC[C@H](C)C[C@H](C)CCCCCCCCC(=O)N[C@H]1C[C@@H](O)[C@@H](NCCN)NC(=O)[C@@H]2[C@@H](O)CCN2C(=O)[C@H]([C@H](O)CCN)NC(=O)[C@H]([C@H](O)[C@@H](O)c2ccc(O)cc2)NC(=O)[C@@H]2C[C@@H](O)CN2C(=O)[C@H]([C@@H](C)O)NC1=O [caspofungin]
flucytosine = compound: Nc1[nH]c(=O)ncc1F [flucytosine]
amphotericin B = compound: C[C@@H]1[C@H](O)[C@@H](C)/C=C/C=C/C=C/C=C/C=C/C=C/C=C/[C@H](O[C@@H]2O[C@H](C)[C@@H](O)[C@H](N)[C@@H]2O)C[C@@H]2O[C@](O)(C[C@@H](O)C[C@@H](O)[C@H](O)CC[C@@H](O)C[C@@H](O)CC(=O)O[C@H]1C)C[C@H](O)[C@H]2C(=O)O [amphotericin B]
fluconazole = compound: OC(Cn1cncn1)(Cn1cncn1)c1ccc(F)cc1F [fluconazole]
itraconazole = compound: CCC(C)n1ncn(-c2ccc(N3CCN(c4ccc(OCC5COC(Cn6cncn6)(c6ccc(Cl)cc6Cl)O5)cc4)CC3)cc2)c1=O [itraconazole]

Test System	MIC (posaconazole)	MIC (anidulafungin)	MIC (voriconazole)	MIC (micafungin)	MIC (caspofungin)	MIC (flucytosine)	MIC (amphotericin B)	MIC (fluconazole)	MIC (itraconazole)
Candida albicans isolate 176 (Erg11p: WT, Fur1p: WT, Tac1p: WT)	0.015 mg/L [S]	≤ 0.015 mg/L [S]	≤ 0.008 mg/L [S]	≤ 0.008 mg/L [S]	0.015 mg/L [S]	≤ 0.06 mg/L [S]	0.25 mg/L [S]	0.5 mg/L [S]	≤ 0.015 mg/L [S]
Candida albicans isolate 248 (Erg11p: V488I,L276S,E266D, Fur1p: WT, Tac1p: N896S,I895T)	0.03 mg/L [S]	0.03 mg/L [S]	≤ 0.008 mg/L [S]	0.015 mg/L [S]	0.03 mg/L [S]	≤ 0.06 mg/L [S]	0.5 mg/L [S]	0.5 mg/L [S]	0.06 mg/L [S]
Candida albicans isolate 273 (Erg11p: E266D, Fur1p: WT, Tac1p: I558V,A377V,F189S,N174D,M170I,K87N)	0.015 mg/L [S]	≤ 0.015 mg/L [S]	≤ 0.008 mg/L [S]	0.015 mg/L [S]	0.12 mg/L [S]	≤ 0.06 mg/L [S]	0.5 mg/L [S]	0.5 mg/L [S]	0.03 mg/L [S]
Candida albicans isolate 59 (Erg11p: V437I,E266D, Fur1p: WT, Tac1p: F189S,N174D,M170I,A90T,K87N)	0.03 mg/L [S]	0.06 mg/L [S]	0.015 mg/L [S]	0.015 mg/L [S]	0.06 mg/L [S]	≤ 0.06 mg/L [S]	0.25 mg/L [S]	0.5 mg/L [S]	0.06 mg/L [S]
Candida albicans isolate 25 (Erg11p: WT, Fur1p: WT, Tac1p: N896S)	0.015 mg/L [S]	0.03 mg/L [S]	≤ 0.008 mg/L [S]	≤ 0.008 mg/L [S]	0.03 mg/L [S]	≤ 0.06 mg/L [S]	0.5 mg/L [S]	0.25 mg/L [S]	0.03 mg/L [S]
Candida albicans isolate 332 (Erg11p: V437I,E266D, Fur1p: WT, Tac1p: F189S,N174D,M170I,A90T,K87N)	≥ 8 mg/L [R]	0.06 mg/L [S]	≥ 8 mg/L [R]	0.015 mg/L [S]	0.06 mg/L [S]	≤ 0.06 mg/L [S]	0.5 mg/L [S]	≥ 256 mg/L [R]	≥ 16 mg/L [R]
Candida albicans isolate 168 (Erg11p: H283L,E266D, Fur1p: WT, Tac1p: I558V)	0.015 mg/L [S]	0.12 mg/L [S]	≤ 0.008 mg/L [S]	≤ 0.008 mg/L [S]	0.03 mg/L [S]	≤ 0.06 mg/L [S]	0.5 mg/L [S]	0.5 mg/L [S]	≤ 0.015 mg/L [S]
Candida albicans isolate 303 (Erg11p: WT, Fur1p: WT, Tac1p: N896S)	0.015 mg/L [S]	≤ 0.015 mg/L [S]	≤ 0.008 mg/L [S]	0.015 mg/L [S]	0.03 mg/L [S]	≤ 0.06 mg/L [S]	0.5 mg/L [S]	0.25 mg/L [S]	0.03 mg/L [S]
Candida albicans isolate 76 (Erg11p: E266D,K143R, Fur1p: WT, Tac1p: N896S,I558V,A377V,F189S,N174D,M170I,K87N)	0.03 mg/L [S]	≤ 0.015 mg/L [S]	0.015 mg/L [S]	0.015 mg/L [S]	0.06 mg/L [S]	≤ 0.06 mg/L [S]	0.5 mg/L [S]	0.25 mg/L [S]	0.06 mg/L [S]
Candida albicans isolate 220 (Erg11p: Y132H,T123I, Fur1p: R101C, Tac1p: WT)	0.06 mg/L [S]	≤ 0.015 mg/L [S]	0.5 µg/mL	0.015 mg/L [S]	0.015 mg/L [S]	≤ 0.06 mg/L [S]	0.5 mg/L [S]	4 µg/mL	0.12 mg/L [S]
Candida albicans isolate 129 (Erg11p: V437I,D153E, Fur1p: WT, Tac1p: N896S,L695F,I558V,E192V,F189S,L131I)	0.015 mg/L [S]	0.12 mg/L [S]	≤ 0.008 mg/L [S]	0.015 mg/L [S]	0.06 mg/L [S]	≤ 0.06 mg/L [S]	0.5 mg/L [S]	0.25 mg/L [S]	0.03 mg/L [S]
Candida albicans isolate 37 (Erg11p: E266D, Fur1p: WT, Tac1p: N896S,I558V,A377V,F189S,N174D,M170I,K87N)	0.03 mg/L [S]	≤ 0.015 mg/L [S]	0.015 mg/L [S]	0.015 mg/L [S]	0.03 mg/L [S]	≤ 0.06 mg/L [S]	0.25 mg/L [S]	1 mg/L [S]	0.03 mg/L [S]
Candida albicans isolate 214 (Erg11p: E266D,G129A, Fur1p: WT, Tac1p: R869Q,L695F,I558V,A377V,F189S,M170V,L131I)	0.03 mg/L [S]	≤ 0.015 mg/L [S]	0.015 mg/L [S]	≤ 0.008 mg/L [S]	0.03 mg/L [S]	≤ 0.06 mg/L [S]	0.5 mg/L [S]	2 mg/L [S]	0.06 mg/L [S]
Candida albicans isolate 1 (Erg11p: Y132H,T123I, Fur1p: R101C, Tac1p: WT)	0.06 mg/L [S]	≤ 0.015 mg/L [S]	0.25 µg/mL	≤ 0.008 mg/L [S]	0.015 mg/L [S]	0.5 mg/L [S]	0.25 mg/L [S]	4 µg/mL	0.12 mg/L [S]
Candida albicans isolate 256 (Erg11p: V488I,E266D, Fur1p: WT, Tac1p: N896S,L695F,I558V,F189S,L131I)	0.015 mg/L [S]	≤ 0.015 mg/L [S]	≤ 0.008 mg/L [S]	0.015 mg/L [S]	0.03 mg/L [S]	≤ 0.06 mg/L [S]	0.25 mg/L [S]	0.25 mg/L [S]	≤ 0.015 mg/L [S]
Candida albicans isolate 72 (Erg11p: E266D, Fur1p: WT, Tac1p: N896S,I558V,A377V,F189S,N174D,M170I,K87N)	0.03 mg/L [S]	0.06 mg/L [S]	≤ 0.008 mg/L [S]	0.015 mg/L [S]	0.03 mg/L [S]	≤ 0.06 mg/L [S]	0.5 mg/L [S]	0.5 mg/L [S]	0.03 mg/L [S]
Candida albicans isolate 204 (Erg11p: V488I,E266D, Fur1p: WT, Tac1p: N896S)	0.015 mg/L [S]	≤ 0.015 mg/L [S]	≤ 0.008 mg/L [S]	0.015 mg/L [S]	0.03 mg/L [S]	≤ 0.06 mg/L [S]	0.5 mg/L [S]	0.25 mg/L [S]	≤ 0.015 mg/L [S]
